Data published in the supplement of paper PMC3334620.
In all, about 33,000 sequences were measured (“E-score (-0.5 to 0.5)”: median about -0.01, highest 2% from about 0.26 on). The list shows a part of the results.

These sequences were tested against Ste12 (UniProt P13574) (assay: PBM E-score (8-mer binding enrichment) (E-score (-0.5 to 0.5)); higher = stronger / more preferred TF binding; most listed sequences are background and not binding sites). Details: protein concentration: 200 nM; construct: GST-DNA-binding domain.
Experimental: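 Universal 'all 10-mer' protein binding microarrays (Agilent AMADID 015681) probed with GST-tagged S. cerevisiae TFs (full-length or DBD) made by in vitro transcription/translation (PURExpress), about 100-200 nM. Bound TF was detected with fluorescent anti-GST. Each ungapped 8-mer (which stands for itself and its reverse complement) is scored by the PBM enrichment score (E-score), a modified Wilcoxon-Mann-Whitney statistic from -0.5 to +0.5, computed with the Universal PBM Analysis Suite. Scale: above 0.35 generally sequence-specific binding.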

Sequence	PBM E-score
CACCATGA	0.0412
CAGATCTA	-0.108
AATGCTCA	-0.0981
CCGTTATC	-0.00617
AGCGAAGG	-0.0315
CTCCCTAA	-0.0679
CACATTCG	0.0938
ATTACCGA	0.186
AGTCCACG	-0.0884
ATCGGTGA	0.0622
AGATTATC	-0.0475
AACGACAA	0.153
AAATGATG	0.0593
GACGGAGC	-0.0257
ACAATCAA	-0.0462
CCCTAGCG	-0.19
CATCGCAG	0.0257
GCCGTCCA	-0.101
AGACGCTG	-0.0846
GGGTGTTA	0.11
CCGCTTTA	0.115
GCCCGAAA	0.113
ATAGATTA	0.209
AATTGCTC	-0.099
ACTGATCA	0.0587

Sequence	PBM E-score
ATGACCGC	-0.0289
CTTTCCGA	0.131
CGCGAACA	0.0454
CCGAGAAA	0.162
ATGCTGCC	-0.122
CCTTGCCA	-0.00668
ATACTAAG	-0.0742
GAATTCCC	-0.0071
AGCTCTAC	-0.165
ACTAGCAG	0.0511
CTGTAGTC	-0.214
AGCCCTTA	-0.258
GTCGTAAC	0.107
ACCGATAA	0.147
AGGGTCAA	0.113
CCAGCAGC	-0.0947
GGTAATAC	0.185
ATAAGTTA	0.138
GCCTCTAC	-0.239
GAAGCGCA	-0.162
ATGCATAG	-0.11
CGCTAAGA	0.0474
CAGCTATA	0.0924
GCGTAAGC	-0.24
CCGTGTAG	-0.0265

Sequence	PBM E-score
CGCGTGCA	-0.0192
CGAATCAA	0.162
CAACCATA	0.0684
CTCAGTCC	-0.221
AATCGTGA	-0.0689
CGGCGACG	0.0339
CGCGTTAA	0.00101
CCTATCCG	-0.15
GCCCGCGC	0.0479
AATCGTCA	-0.0429
CAGGCAGG	-0.145
ACCGTAGG	-0.274
CACCCCTG	-0.0572
GCTAATAA	-0.0235
AGAAAAGG	0.176
GATGATAC	0.0614
TACATACA	0.192
ATAAACGG	0.142
GGATTGCA	0.117
AAAGGTGA	0.0476
ACGTTTTG	0.222
CGCGGTTA	0.0706
GGCGAGCA	-0.0713
GTCTAAAA	0.135
CCGGTGAG	-0.0624

Sequence	PBM E-score
CCGATCGC	-0.0205
AGAGAATC	-0.0492
CGAACACA	0.0728
TCATCGAA	0.0775
AGTATGAT	0.0791
GGGAGATA	-0.0771
AGTGGTTC	-0.158
TTACCAAA	0.263
GATGAGGC	0.0467
ATAAAAGC	-0.00425
CACGCCAA	-0.0924
ACGTCAGT	-0.138
GACGTATA	-0.0508
CAATCGGA	0.204
CACGTCGG	-0.194
AGTGTCGG	0.0566
CCTGTACG	-0.131
GGAAGACC	-0.00071
AACTGATT	-0.0149
ACGCCGAT	0.00428
AGCCAACT	-0.112
GAGCGTAA	0.0788
CACCGGGA	0.0376
AGTATACT	-0.1
ATTAGAAA	0.15

Sequence	PBM E-score
CACATAAG	0.044
GCAAAGGC	-0.221
GAAGAGAC	0.0213
AACAGCTA	-0.0909
CACAACCC	-0.112
AATACGAA	0.176
CATTTAGC	-0.126
GTAGAAGA	-0.0532
CCGCCCTA	0.0241
AGCGTGCG	0.02
CCATATAA	0.101
ACGTAACG	-0.00102
CTAAGTAA	0.0277
AATCTGCT	-0.2
AGGTTGCC	-0.0936
AGGCACCT	-0.3
CCTGGCCC	-0.202
CTCAATCA	0.0531
AGCGCAAG	-0.0674
CTCCGTCA	-0.0659
AGTGGGTC	-0.103
CTTTCCCA	-0.00597
ACGCTCTA	-0.267
CGCTGCGA	0.0236
TAATGATA	0.272

Sequence	PBM E-score
GGTGCCAC	-0.171
AAAATGAT	0.317
AAAGTTGG	0.0145
AGCGTAAC	0.0325
GACGAGTC	-0.0383
CCGTTACG	-0.094
CTATAAAG	0.0956
GATTTGCC	0.0469
AGCTACCA	-0.0088
TCAACTCA	0.0748
GAGCCAAA	0.181
AATCAGGT	0.165
AAGTTCAA	0.124
AATCTCCC	0.0742
CTGTGGCC	-0.268
AGCTGTTC	-0.165
AAACAGGT	0.0754
CAATTAAG	0.123
AAAGCAAA	0.148
CACCCATC	0.0166
GACCGTGA	-0.0399
GGAAGAAA	0.208
AAGAAGGG	0.0119
TAGGGACA	-0.0368
GCCAGGAC	-0.0764

Sequence	PBM E-score
ATGCAAGG	0.0272
AGTTTGGA	0.115
AAAATATA	0.241
GCCGCACA	-0.0587
ATATAACC	0.168
AAACCTAG	0.16
GCAGCCCA	-0.22
CCCTTTGA	-0.0164
AAACCTAA	0.121
GAAGAACA	0.119
ACAGGAAG	0.0226
ACACAGCT	-0.147
TAGGTGCA	-0.186
CCAACAAA	0.248
AACGAATT	0.125
GAAGATTA	0.121
TCATCACA	-0.0218
AAAGAAGT	0.127
ACTGAGCA	-0.119
CAACTTGA	0.0746
ATGGGGGA	0.00889
GTCGATAA	-0.0899
